Among all 220,000 compounds or so, about 5,700 (2.6%) were called active. Inconclusive results, whose numbers are uncertain, are shown with a selection of clear calls. Calls follow the shape of the dose curve; as a rule, active = well fitted inhibition curve with a large enough effect; inconclusive = small, poorly fitted or top-dose-only effect; inactive = no such curve, though single readings can be large or run the other way. Potencies of inconclusive entries are doubtful fits and often do not repeat.
Target: Lysine-specific demethylase 5B (Homo sapiens) (UniProt Q9UGL1)
Test: Primary screen for KDM5B Histone Demethylases FDH-coupled qHTS; also: nearly all actives have a fitted effect of over 70% in size; as to activity change, negative = inhibition: 0% is about no effect
Settings: FDH-coupled NADH fluorescence (FDH is formaldehyde dehydrogenase); activity change, negative = inhibition: at 57.7 µM (top of the series) unless noted
How it was run: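 Coupled FDH/NAD⁺ fluorescence readout. KDM5BΔAP 200 nM final; compound titration, 10 min RT preincubation; substrate mix 12.5 µM H3K4me3, 25 µM 2-OG, 50 µM Fe(II), 100 µM ascorbate, 0.25 mM NAD⁺, 0.25 U/mL FDH; ΔRFU over 30 min.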
Potency is read from the fitted curve at half-maximal effect; tags tell the direction and shape of the fitted curve.

Chain of UniProt Q9UGL1 (Q9UGL1 whole entry, looked up): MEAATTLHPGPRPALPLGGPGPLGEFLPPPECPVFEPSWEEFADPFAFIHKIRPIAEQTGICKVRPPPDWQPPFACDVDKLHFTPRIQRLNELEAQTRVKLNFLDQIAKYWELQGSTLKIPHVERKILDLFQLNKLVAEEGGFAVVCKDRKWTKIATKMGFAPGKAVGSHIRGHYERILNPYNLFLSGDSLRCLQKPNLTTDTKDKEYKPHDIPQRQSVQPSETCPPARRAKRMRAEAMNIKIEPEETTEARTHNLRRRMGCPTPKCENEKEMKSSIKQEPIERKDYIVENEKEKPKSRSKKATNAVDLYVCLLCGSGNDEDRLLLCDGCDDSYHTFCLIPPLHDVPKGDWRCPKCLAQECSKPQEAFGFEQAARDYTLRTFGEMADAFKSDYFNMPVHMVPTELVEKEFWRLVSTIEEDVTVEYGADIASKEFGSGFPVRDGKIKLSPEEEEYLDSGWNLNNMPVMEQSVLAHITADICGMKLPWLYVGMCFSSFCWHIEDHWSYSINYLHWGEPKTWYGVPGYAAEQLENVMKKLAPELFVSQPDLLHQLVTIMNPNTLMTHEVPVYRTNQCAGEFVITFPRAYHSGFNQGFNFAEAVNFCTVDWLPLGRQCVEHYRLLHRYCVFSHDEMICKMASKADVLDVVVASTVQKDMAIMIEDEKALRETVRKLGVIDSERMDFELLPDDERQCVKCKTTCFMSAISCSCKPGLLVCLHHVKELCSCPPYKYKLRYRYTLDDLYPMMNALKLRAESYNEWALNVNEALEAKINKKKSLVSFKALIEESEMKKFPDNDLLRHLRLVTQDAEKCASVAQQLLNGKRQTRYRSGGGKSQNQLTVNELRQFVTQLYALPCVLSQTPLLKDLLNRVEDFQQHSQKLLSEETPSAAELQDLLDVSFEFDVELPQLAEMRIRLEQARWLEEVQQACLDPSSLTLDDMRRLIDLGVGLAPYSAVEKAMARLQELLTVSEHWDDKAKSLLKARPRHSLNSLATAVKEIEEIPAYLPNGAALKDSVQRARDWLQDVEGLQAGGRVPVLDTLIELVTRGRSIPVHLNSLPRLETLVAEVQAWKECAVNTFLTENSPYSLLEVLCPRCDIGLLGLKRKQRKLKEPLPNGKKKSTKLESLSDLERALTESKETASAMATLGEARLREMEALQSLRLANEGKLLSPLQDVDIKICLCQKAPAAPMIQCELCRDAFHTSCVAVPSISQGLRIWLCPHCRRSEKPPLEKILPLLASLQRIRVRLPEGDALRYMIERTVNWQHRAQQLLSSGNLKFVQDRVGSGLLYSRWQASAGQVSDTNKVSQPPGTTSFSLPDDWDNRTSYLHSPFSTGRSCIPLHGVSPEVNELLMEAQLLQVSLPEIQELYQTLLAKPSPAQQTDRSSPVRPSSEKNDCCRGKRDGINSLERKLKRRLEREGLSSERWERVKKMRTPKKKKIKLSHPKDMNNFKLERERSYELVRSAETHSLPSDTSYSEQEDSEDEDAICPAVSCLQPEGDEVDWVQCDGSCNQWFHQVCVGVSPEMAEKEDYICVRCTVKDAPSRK

Row | SMILES | Potency | activity change, negative = inhibition
1 | CCn1nc(NC(=O)C2CCCO2)c2cc3cccc(C)c3nc21 (stereo unspecified) | inconclusive: 28.2 µM [inhibitor, partial curve, poor fit] | 
2 | COc1ccc(S(=O)(=O)NCC(c2ccco2)N2CCN(c3ccc(F)cc3)CC2)cc1C (stereo unspecified) | inconclusive: 22.4 µM [inhibitor, single point] | 
3 | O=C(NC1CCCCC1)[C@@H]1Cc2nc[nH]c2CN1Cc1ccc(Cl)cc1 | inconclusive: 35.5 µM [inhibitor, partial curve] | 
4 | COc1cc(/C=C(/C#N)C(=O)c2ccccc2)cc(Cl)c1O | inconclusive: 31.6 µM [inhibitor, single point] | 
5 | CNC(=S)NNC(=O)c1cccnc1 |  | inactive: -15.3%
6 | CC(=O)Nc1ccc2nc(-c3cc(C)ccc3C)[nH]c2c1 | inconclusive: 31.6 µM [inhibitor, partial curve, poor fit] | 
7 | Cc1cc(C)n(-c2nc3ccccc3nc2N2CCN(C)CC2)n1 | inconclusive: 28.2 µM [inhibitor, partial curve, poor fit] | 
8 | COCCN1CC(CO)C2(CCN(C(=O)c3ccc(C(C)C)cc3)CC2)C1 (stereo unspecified) | inconclusive: 20 µM [inhibitor, partial curve, poor fit] | 
9 | Cc1cc(C)cc(NC(=S)NCc2ccc(Cl)cc2)c1 |  | inactive: -23.2%
10 | CCOc1ccc(-c2cc3c(=O)n(CCNC(=O)c4ccoc4)ccn3n2)cc1 | active: 22.4 µM | 
11 | COc1ccc(C)cc1NC(=O)c1cccc(-n2cccc2)c1 | inconclusive: 39.8 µM [inhibitor, single point] | 
12 | CCCCN(CC)CCNC(=O)c1cn(C)c(=O)c2c1c1ccccc1n2C | inconclusive: 28.2 µM [inhibitor, partial curve, poor fit] | inconclusive: -92.2% [inhibitor]
13 | Cc1ccc(OCc2ccc(-c3nc(C#N)c(NCc4cccnc4)o3)o2)cc1 | inconclusive: 31.6 µM [inhibitor, partial curve, poor fit] | 
14 | COc1ccccc1-c1ccnc(N[C@H]2CO[C@H]3[C@@H]2OC[C@@H]3NC(=O)COc2ccccc2)n1 | active: 22.4 µM | 
15 | CC1=C[C@@H](CNS(=O)(=O)c2ccc(C#N)cc2)[C@H](C(C)C)C[C@H]1CC(=O)N1CCOCC1 |  | inactive: -22.9%
16 | COc1cc(NC(=O)NC(C)c2c(-n3cccc3)sc3c2CCCC3)cc(OC)c1OC (stereo unspecified) | inconclusive: 10 µM [inhibitor, partial curve, poor fit] | 
17 | NS(=O)(=O)c1ccc(N/N=C/c2ccc(Cl)cc2Cl)c([N+](=O)[O-])c1 |  | inactive: 22.1%
18 | COc1ccccc1N1CCN(CCCNC(=O)c2cnn(-c3cccc(Cl)c3)c2C2CCN(C(=O)OC(C)(C)C)CC2)CC1 | inconclusive: 35.5 µM [inhibitor, single point] | 
19 | O=C(c1cccc(F)c1)N1CCCC1c1nc(C2CCOCC2)no1 (stereo unspecified) | inconclusive: 31.6 µM [inhibitor, partial curve] | 
20 | Cc1csc(NC(=O)c2ccc(Oc3cccc(Br)c3)nc2)n1 | inconclusive: 35.5 µM [inhibitor, single point] | 
21 | CCOc1ccc(CNC(=O)Cn2cc3c(n2)-c2c(oc(C(=O)N4CCOCC4)c2C)CC3)cc1 | inconclusive: 14.1 µM [inhibitor, partial curve, poor fit] | 
22 | CN1CCN(C)c2cnc(-c3cnn(Cc4ccccc4)c3)cc2C1 | inconclusive: 35.5 µM [inhibitor, partial curve, poor fit] | 

Row | SMILES | Potency | activity change, negative = inhibition
23 | COCCN1C(=O)c2ccccc2C(C(=O)Nc2nc3c(s2)CCC3)C12CCCC2 (stereo unspecified) | inconclusive: 31.6 µM [inhibitor, partial curve] | 
24 | CN(Cc1ccccn1)Cc1ccccc1C(F)(F)F | inconclusive: 15.8 µM [inhibitor, partial curve, poor fit] | 
25 | O=C(c1ccc(F)c(Cl)c1)N1CCC(n2cc(-c3nc(-c4ccccc4)no3)nn2)CC1 |  | inactive: -22.6%
26 | Cc1noc(-c2ccc(OC3CN(C(=O)Cc4ccsc4)C3)cc2)n1 |  | inactive: -20.2%
27 | CCCOc1ccc(N2C(=O)CC(N(Cc3ccccc3)N=O)C2=O)cc1 (stereo unspecified) | inconclusive: 28.2 µM [inhibitor, partial curve, poor fit] | 
28 | COc1cc(F)ccc1-c1ccc2c(n1)c(=O)ncn2CCC(F)(F)F | inconclusive: 31.6 µM [inhibitor, partial curve, poor fit] | 
29 | CN(C)CCNc1oc(-c2ccc(S(=O)(=O)N3CCCC3)cc2)nc1C#N | inconclusive: 22.4 µM [inhibitor, partial curve, poor fit] | 
30 | CCCc1ccc(C(NC(=O)Cn2c(=O)c3c(ncn3C)n(C)c2=O)C(C)C)cc1 (stereo unspecified) |  | inactive: -24.7%
31 | Cc1ccc(-n2ncc3c(Nc4cccc(C)c4C)ncnc32)cc1 | inconclusive: 31.6 µM [inhibitor, partial curve, poor fit] | 
32 | CC(=O)c1cccc(NC(=O)c2ccc3c(c2)NC(=O)C2CCCN32)c1 (stereo unspecified) | inconclusive: 20 µM [inhibitor, partial curve, poor fit] | 
33 | O=C(CCCSc1nc2ccccc2s1)Nc1ccc(C(F)(F)F)cc1 |  | inactive: 1.5%
34 | O=C(NC1CCN(c2cc(-c3cccs3)[nH]n2)C1)c1ccc2nc[nH]c2c1 (stereo unspecified) | inconclusive: 15.8 µM [inhibitor, partial curve, poor fit] | 
35 | O=C(Nc1ccc(F)cc1)C1CCCN(c2nc3ncccc3o2)C1 (stereo unspecified) | inconclusive: 25.1 µM [inhibitor, partial curve] | 
36 | Cc1ccc(CSc2nc3c(cc2C#N)C(=O)CC(C)(C)C3)cc1 |  | inactive: 19.3%
37 | O=C(Cc1ccsc1)N1CC(Oc2ccccc2-c2nc(-c3ccccc3)no2)C1 | inconclusive: 28.2 µM [inhibitor, single point] | 
38 | CC1CCN(S(=O)(=O)c2cn(CC(=O)Nc3cccc(-c4ccno4)c3)cn2)CC1 |  | inactive: -3.97%
39 | Cc1ccc(C(=O)N(C)Cc2ccsc2)s1 |  | inactive: 11.8%
40 | Cc1ccc(-n2ncc3c(NCCC4=CCCCC4)ncnc32)cc1 | inconclusive: 35.5 µM [inhibitor, partial curve, poor fit] | 
41 | Cc1ccc(Cl)cc1NC(=O)C(C)n1nc(-c2ccccc2)ccc1=O (stereo unspecified) | inconclusive: 15.8 µM [inhibitor, partial curve, poor fit] | 
42 | O=C(N[C@@H]1C[C@H](Cn2cc(CN3CCS(=O)(=O)CC3)nn2)[C@@H](O)[C@H]1O)C1CCCC1 | inconclusive: 12.6 µM [inhibitor, partial curve] | 
43 | Cc1nc(CCCNC(=O)[C@H]2CNC[C@@H](C(=O)N3CCOCC3)C2)sc1C |  | inactive: 70.9%
44 | Cn1c(C(=O)NCCc2cnc[nH]2)nc2nc(-c3ccccc3)c(Cl)cc21 | active: 35.5 µM | 

Row | SMILES | Potency | activity change, negative = inhibition
45 | COc1ccc(Cl)cc1C(=O)Nc1c(N2CCCC2)c2ccccc2oc1=O |  | inactive: -26.5%
46 | CCN(CC)C(=O)CN1CCN(c2nc(C)c3c(c2C#N)CC(C)(C)OC3)CC1 | inconclusive: 28.2 µM [inhibitor, single point] | 
47 | COc1ccc(CN2CCC3(C2)NC(=O)c2ccccc2O3)cc1 (stereo unspecified) |  | inactive: 14.6% [at 86.2 µM]
48 | COc1cccc(-c2n[nH]c(=O)c3c2C(c2cccc(F)c2)n2nnnc2N3)c1 (stereo unspecified) | inconclusive: 25.1 µM [inhibitor, single point] | 
49 | CN(C)/C=C/C=C1C(=O)CC(C)(C)CC1=O |  | inactive: 18.7%
50 | CCOC(=O)C1=CN(CC(=O)Nc2cc(F)ccc2F)S(=O)(=O)N=C1C |  | inactive: -15.8%
51 | CCOC(=O)Cn1c(=O)c2c3c(sc2n(CCCN(C)C)c1=O)CC(C)CC3 (stereo unspecified) |  | inactive: -5.43%
52 | CC(=O)N1C[C@@H](C(=O)N2CCN(c3ccccn3)CC2)[C@H](c2nc(C)no2)C1 | inconclusive: 25.1 µM [inhibitor, partial curve, poor fit] | 
53 | CC1CCc2c(sc(NC(=O)C3c4ccccc4Oc4ccccc43)c2C#N)C1 (stereo unspecified) | inconclusive: 1.78 µM [inhibitor, partial curve, poor fit] | 
54 | COCCCNc1cc(-c2ccccc2OC)nc2c(C)noc12 |  | inactive: -4.27% [at 86.2 µM]
55 | O=C(Nc1ccc2c(N3CCOCC3)ncnc2c1)c1cccc(Br)c1 | inconclusive: 15.8 µM [inhibitor, partial curve, poor fit] | 
56 | COc1ccc2c(c1)CCN=C2C[C@H]1CN(C(=O)C(=O)O)CC[C@H]1CC(=O)O | active: 28.2 µM | 
57 | COC(=O)c1scc(-c2ccc(C)cc2)c1S(=O)(=O)N1CCN(c2ccc(C(C)=O)cc2)CC1 | inconclusive: 17.8 µM [inhibitor, partial curve, poor fit] | 
58 | C[C@]1(CO)[C@H]2Cc3sc(NC(=O)c4ccco4)nc3[C@@H](CC(=O)Nc3ccccc3)[C@]2(C)CC[C@H]1O | inconclusive: 31.6 µM [inhibitor, single point] | 
59 | C[C@H](C(=O)N1CCSCC1)C1CC[C@@]2(C)Cc3sc(Nc4c(Cl)cccc4Cl)nc3[C@@H](C)[C@@H]2[C@H]1O (stereo partly specified) |  | inactive: 6.4%
60 | COc1ccc(C2=CC(c3ccccc3Cl)n3nc(-c4ccc(Cl)cc4)nc3N2)cc1 (stereo unspecified) | inconclusive: 31.6 µM [inhibitor, partial curve, poor fit] | 
61 | CC(C)c1ccccc1NC(=O)c1ccc2c(c1)NC(=O)CS2 |  | inactive: 8.52%
62 | CC(NC(=O)c1nccnc1N)c1cccc(Br)c1 (stereo unspecified) | inconclusive: 28.2 µM [inhibitor, partial curve, poor fit] | 
63 | CCOC(=O)C(NC(=O)/C=C/c1ccc(OCC)c(OC)c1)C(=O)OCC | inconclusive: 28.2 µM [inhibitor, partial curve, poor fit] | 
64 | CS(=O)(=O)c1ccc(-c2nc(C(=O)NCc3cccnc3)n3ccncc23)cc1 | active: 10 µM | 
65 | O=C(C[C@@H]1CCNC[C@@H]1Cc1cc(-c2ccc(F)cc2)on1)NCc1cccnc1 | inconclusive: 28.2 µM [inhibitor, single point] | 

Reference: PubChem BioAssay AID1347165 (National Center for Advancing Translational Sciences (NCATS), 2019)
